From patent US20150203517A1, “Prodrugs of Compounds that Enhance Antifungal Activity and Compositions of Said Prodrugs” (priority 2014, published 2015)
Structures can show the parent of a compound that is named as a salt. The name of at least one read-out is uncertain.

Assay: Stability in saline (HPLC recovery after 6 and 24 hours)
Type: physicochemical
Conditions: HPLC UV 220 nm

Row | SMILES | Recovery after 6 hr in saline with 220 nm [%] | Recovery after 24 hr in saline with 220 nm [%]
1 | COCCOCCOCCNC(=O)CN(CC(=O)NCCOCCOCCOC)C(=O)CCC(=O)ONC(=O)Cc1ccc(CCCCc2ccccc2)cc1 [Compound 95, 4-oxo-N,N-bis (12-oxo-2,5,8-trioxa-11-azatridecan-13-yl)-4-(2-(4-(4-phenylbutyl)phenyl)acetamidooxy)butanamide] | 95.2 | 84.3
2 | COCCOCCOCC(=O)NCCCC[C@H](NC(=O)COCCOCCOC)C(=O)NCCC(=O)ONC(=O)Cc1ccc(CCCCc2ccccc2)cc1 [Compound 63, (S)—N,N′-(6-Oxo-6-(3-oxo-3-(2-(4-(4-phenylbutyl)phenyl)acetamidooxy)propylamino)hexane-1,5-diyl)bis(2-(2-(2-methoxyethoxyl)ethoxy)acetamide)] | 95.6 | 84.3
3 | COCCOCCOCCOCCOCC(=O)N1CCN(C(=O)ONC(=O)Cc2ccc(CCCCc3ccccc3)cc2)CC1 [Compound 81] | 92.4 | 31.5
4 | COCCOCCOCC(=O)NCCCC[C@H](NC(=O)COCCOCCOC)C(=O)NCC1(C(=O)ONC(=O)Cc2ccc(CCCCc3ccccc3)cc2)CC1 [Compound 162] | 96.4 | 88.6
5 | Cl.O=C(Cc1ccc(CCCCc2ccccc2)cc1)NOC(=O)CCC1CCNCC1 [Compound 110, 2-(4-(4-Phenylbutyl)phenyl)-N-(3-(piperidin-4-yl)propanoyloxy) acetamide hydrochloride] | 94.4 | 83.1
6 | COCCOCCOCC(=O)NCCN(CC(=O)NCCCC(=O)ONC(=O)Cc1ccc(CCCCc2ccccc2)cc1)C(=O)COCCOCCOC [Compound 134, 2-(2-(2-Methoxyethoxyl)ethoxy)-N-(2-oxo-2-(4-oxo-4-(2-(4-(4-phenylbutyl)phenyl)acetamidooxy)butylamino)ethyl)-N-(10-oxo-2,5,8-trioxa-11-azatridecan-13-yl)acetamide] | 99.3 | 95.2
7 | COCCOCCOCCOCCOCC(=O)NCCCC[C@H](NC(=O)COCCOCCOCCOCCOC)C(=O)NCCCC(=O)ONC(=O)Cc1ccc(CCCCc2ccccc2)cc1 [Compound 102] | 97.2 | 91.3
8 | COCCOCCOCC(=O)NCCCC[C@H](NC(=O)COCCOCCOC)C(=O)N(C)CCCC(=O)ONC(=O)Cc1ccc(CCCCc2ccccc2)cc1 [Compound 64, (S)—N,N′-(6-(Methyl(4-oxo-4-(2-(4-(4-phenylbutyl)phenyl)acetamidooxy)butyl)amino)-6-oxohexane-1,5-diyl)bis(2-(2-(2-methoxyethoxyl)ethoxy)acetamide)] | 95.1 | 90.8
9 | NCCNCC(=O)NCCC(=O)ONC(=O)Cc1ccc(CCCCc2ccccc2)cc1 [Compound 135, 2-(2-aminoethylamino)-N-(3-oxo-3-(2-(4-(4-phenylbutyl)phenyl)acetamidooxy)propyl) acetamide dihydrochloride] | 99.6 | 71.8
10 | COCCOCCOCC(=O)NCCCC[C@H](NC(=O)COCCOCCOC)C(=O)N1CCC[C@H]1C(=O)ONC(=O)Cc1ccc(CCCCc2ccccc2)cc1 [Compound 107, N,N′-((S)-6-Oxo-6-((S)-2-((2-(4-(4-phenylbutyl)phenyl)acetamidooxy)carbonyl)pyrrolidin-1-yl)hexane-1,5-diyl)bis(2-(2-(2-methoxyethoxyl)ethoxy)acetamide)] | 96.3 | 91.2
11 | COCCOCCOCC(=O)NCCCC[C@H](N)C(=O)NCCC(=O)ONC(=O)Cc1ccc(CCCCc2ccccc2)cc1.Cl [Compound 142, (S)-2-Amino-6-(2-(2-(2-methoxyethoxy)ethoxy)acetamido)-N-(3-oxo-3-(2-(4-(4-phenylbutyl)phenyl)acetamidooxy)propyl) hexanamide hydrochloride] | 93.3 | 75.4
12 | COCCOCC(=O)NCCCC[C@H](NC(=O)COCCOC)C(=O)NCCC(=O)ONC(=O)Cc1ccc(CCCCc2ccccc2)cc1 [Compound 68] | 93.2 | 84.1
13 | COCCOCCOCCOCCOCCOCC(=O)N1CCC(C(=O)ONC(=O)Cc2ccc(CCCCc3ccccc3)cc2)CC1 [Compound 120] | 96.9 | 90.7
14 | Cl.O=C(Cc1ccc(CCCCc2ccccc2)cc1)NOC(=O)CCN1CCNCC1=O [Compound 128, N-(3-(2-oxopiperazin-1-yl)propanoyloxy)-2-(4-(4-phenylbutyl)phenyl) acetamide hydrochloride] | 89.1 | 43.0
15 | COCCOCCOCCOCCOCCOCC(=O)NCCCC[C@H](NC(=O)COCCOCCOCCOCCOCCOC)C(=O)NCCCC(=O)ONC(=O)Cc1ccc(CCCCc2ccccc2)cc1 [Compound 103] | 97.6 | 91.9
16 | COCCOCCOCCOCCOCCOCC(=O)N1CCN(C(=O)ONC(=O)Cc2ccc(CCCCc3ccccc3)cc2)CC1 [Compound 82] | 82.7 | 41.7
17 | COCCOCCOCC(=O)N1CCN(C(=O)CCC(=O)ONC(=O)Cc2ccc(CCCCc3ccccc3)cc2)CC1 [Compound 124] | 99.7 | 96.6
18 | COCCOCCOCC(=O)NCCCC[C@H](NC(=O)COCCOCCOC)C(=O)NCCCC(=O)ONC(=O)Cc1ccc(CCCCc2ccccc2)cc1 [Compound 99, (S)—N,N-(6-Oxo-6-(4-oxo-4-(2-(4-(4-phenylbutyl)phenyl)acetamidooxy)butylamino)hexane-1,5-diyl)bis(2-(2-(2-methoxyethoxyl)ethoxy)acetamide)] | 97.1 | 92.2
19 | COCCOCC(=O)NCCCC[C@H](NC(=O)COCCOC)C(=O)NCCCC(=O)ONC(=O)Cc1ccc(CCCCc2ccccc2)cc1 [Compound 100] | 95.2 | 86.7
20 | COCCOCCOCCOCCOCCOCC(=O)N1CCC(CC(=O)ONC(=O)Cc2ccc(CCCCc3ccccc3)cc2)CC1 [Compound 117] | 97.0 | 92.9
21 | COCCOCCOCC(=O)NCCCC[C@H](NC(=O)COCCOCCOC)C(=O)NC[C@H](C)C(=O)ONC(=O)Cc1ccc(CCCCc2ccccc2)cc1 [Compound 91] | 97.3 | 90.2
22 | COCCOCCOCCOCCOCC(=O)NCCCC[C@H](NC(=O)COCCOCCOCCOCCOC)C(=O)NCCC(=O)ONC(=O)Cc1ccc(CCCCc2ccccc2)cc1 [Compound 69] | 97.3 | 92.0
23 | Cl.O=C(Cc1ccc(CCCCc2ccccc2)cc1)NOC(=O)CCC(=O)N1CCNCC1 [Compound 123, N-(4-oxo-4-(piperazin-1-yl)butanoyloxy)-2-(4-(4-phenylbutyl)phenyl) acetamide hydrochloride] | 95.2 | 72.0
24 | COCCOCCOCCOCCOCCOCC(=O)N1CCC(CCC(=O)ONC(=O)Cc2ccc(CCCCc3ccccc3)cc2)CC1 [Compound 111, N-(3-(1-2,5,8,11,14,17-Hexaoxanonadecanepiperidin-4-yl)propanoyloxy)-2-(4-(4-phenylbutyl)phenyl)acetamide] | 98.3 | 95.6
25 | COCCOCCOCCOCC(=O)NCCCC[C@H](NC(=O)COCCOCCOCCOC)C(=O)NCCCC(=O)ONC(=O)Cc1ccc(CCCCc2ccccc2)cc1 [Compound 101] | 97.0 | 89.9
